{
  "source": "paper PMC9911399",
  "about": "“Two distinct binding modes provide the RNA-binding protein RbFox with extraordinary sequence specificity”",
  "binders": {"B1": {"name": "GCACGGC (DNA:RNA)", "RNA": "GGGAGACCGGAAUUCAGAUUGUCCGCACGGCUUAAAUCCCGUCGUAGCCACCA", "DNA 1": "CAATCTGAATTCCGGTCTCCC", "DNA 2": "TGGTGGCTACGACGGGATT"}, "B2": {"name": "UGUUGAG (DNA:RNA)", "RNA": "B1 RNA with G25U, C26G, A27U, C28U, G30A, C31G", "DNA 1": "CAATCTGAATTCCGGTCTCCC", "DNA 2": "TGGTGGCTACGACGGGATT"}, "B3": {"name": "GCUCGGA (DNA:RNA)", "RNA": "B1 RNA with A27U, C31A", "DNA 1": "CAATCTGAATTCCGGTCTCCC", "DNA 2": "TGGTGGCTACGACGGGATT"}, "B4": {"name": "UGCGGCG (DNA:RNA)", "RNA": "B1 RNA with G25U, C26G, A27C, C28G, G30C, C31G", "DNA 1": "CAATCTGAATTCCGGTCTCCC", "DNA 2": "TGGTGGCTACGACGGGATT"}, "B5": {"name": "GAAUAUC (DNA:RNA)", "RNA": "B1 RNA with C26A, C28U, G29A, G30U", "DNA 1": "CAATCTGAATTCCGGTCTCCC", "DNA 2": "TGGTGGCTACGACGGGATT"}, "B6": {"name": "ACCUUUA (DNA:RNA)", "RNA": "B1 RNA with G25A, A27C, C28U, G29U, G30U, C31A", "DNA 1": "CAATCTGAATTCCGGTCTCCC", "DNA 2": "TGGTGGCTACGACGGGATT"}, "B7": {"name": "AUUAAUU (DNA:RNA)", "RNA": "GGGAGACCGGAAUUCAGAUUGUCCAUUAAUUUUAAAUCCCGUCGUAGCCACCA", "DNA 1": "CAATCTGAATTCCGGTCTCCC", "DNA 2": "TGGTGGCTACGACGGGATT"}, "B8": {"name": "AGAACAG (DNA:RNA)", "RNA": "B7 RNA with U26G, U27A, A29C, U30A, U31G", "DNA 1": "CAATCTGAATTCCGGTCTCCC", "DNA 2": "TGGTGGCTACGACGGGATT"}, "B9": {"name": "CACGAUG (DNA:RNA)", "RNA": "B7 RNA with A25C, U26A, U27C, A28G, U31G", "DNA 1": "CAATCTGAATTCCGGTCTCCC", "DNA 2": "TGGTGGCTACGACGGGATT"}, "B10": {"name": "CCAUCGG (DNA:RNA)", "RNA": "B1 RNA with G25C, C28U, G29C, C31G", "DNA 1": "CAATCTGAATTCCGGTCTCCC", "DNA 2": "TGGTGGCTACGACGGGATT"}, "B11": {"name": "AGGCCUA (DNA:RNA)", "RNA": "B7 RNA with U26G, U27G, A28C, A29C, U31A", "DNA 1": "CAATCTGAATTCCGGTCTCCC", "DNA 2": "TGGTGGCTACGACGGGATT"}, "B12": {"name": "CCUAAAC (DNA:RNA)", "RNA": "B7 RNA with A25C, U26C, U30A, U31C", "DNA 1": "CAATCTGAATTCCGGTCTCCC", "DNA 2": "TGGTGGCTACGACGGGATT"}, "B13": {"name": "UUGAACA (DNA:RNA)", "RNA": "B7 RNA with A25U, U27G, U30C, U31A", "DNA 1": "CAATCTGAATTCCGGTCTCCC", "DNA 2": "TGGTGGCTACGACGGGATT"}, "B14": {"name": "CGAAGAA (DNA:RNA)", "RNA": "B1 RNA with G25C, C26G, C28A, G30A, C31A", "DNA 1": "CAATCTGAATTCCGGTCTCCC", "DNA 2": "TGGTGGCTACGACGGGATT"}, "B15": {"name": "AUUUCCA (DNA:RNA)", "RNA": "B7 RNA with A28U, A29C, U30C, U31A", "DNA 1": "CAATCTGAATTCCGGTCTCCC", "DNA 2": "TGGTGGCTACGACGGGATT"}, "B16": {"name": "GGCUAGC (DNA:RNA)", "RNA": "B1 RNA with C26G, A27C, C28U, G29A", "DNA 1": "CAATCTGAATTCCGGTCTCCC", "DNA 2": "TGGTGGCTACGACGGGATT"}, "B17": {"name": "ACACUAA (DNA:RNA)", "RNA": "B1 RNA with G25A, G29U, G30A, C31A", "DNA 1": "CAATCTGAATTCCGGTCTCCC", "DNA 2": "TGGTGGCTACGACGGGATT"}, "B18": {"name": "GGGGUGC (DNA:RNA)", "RNA": "B1 RNA with C26G, A27G, C28G, G29U", "DNA 1": "CAATCTGAATTCCGGTCTCCC", "DNA 2": "TGGTGGCTACGACGGGATT"}, "B19": {"name": "GGCUUAA (DNA:RNA)", "RNA": "B1 RNA with C26G, A27C, C28U, G29U, G30A, C31A", "DNA 1": "CAATCTGAATTCCGGTCTCCC", "DNA 2": "TGGTGGCTACGACGGGATT"}, "B20": {"name": "UCAUAAA (DNA:RNA)", "RNA": "B1 RNA with G25U, C28U, G29A, G30A, C31A", "DNA 1": "CAATCTGAATTCCGGTCTCCC", "DNA 2": "TGGTGGCTACGACGGGATT"}},
  "note": "Numbering of substitutions follows the chain as printed; changes in the protein carry UniProt numbers. The list shows a part of the results.",
  "data": [
    {"biological_target": "T1, RBFOX1 RRM RbFoxmut (Fox-RRM*) (Homo sapiens, UniProt Q9NWB1 109-208, R118D;E147R;N151S;E152T)", "T1 sequence": "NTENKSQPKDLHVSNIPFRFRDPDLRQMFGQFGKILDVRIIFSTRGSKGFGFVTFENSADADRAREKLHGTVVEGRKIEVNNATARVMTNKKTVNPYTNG", "experiment": "EMSA; HiTS-Eq, 1 nM pool, 10 min; buffer printed only for the single-RNA assays: 10 mM Tris pH 7.5, 150 mM NaCl, 3.4 mM EDTA, 0.001% NP-40, 30 C", "conditions": "tags: His6 N-terminal (pET28a); label: 5' 32P", "in_short": "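These values rest on relative association constants, computed from read-count changes of each RNA species versus the control reaction and normalised to the cognate motif. Reads came from free RNA recovered by 8% native PAGE after purified RbFox RRM (wild type or mutant) at increasing concentrations was equilibrated for 10 min in 50 µL with 1 nM of a 5′-radiolabelled pool with 7 randomized nucleotides and DNA-annealed flanks.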", "values": [
      {"binder": "B1", "binding signal": "0.232 KA relative to UGCAUGU"},
      {"binder": "B2", "binding signal": "0.143 KA relative to UGCAUGU"},
      {"binder": "B3", "binding signal": "0.0688 KA relative to UGCAUGU"},
      {"binder": "B4", "binding signal": "0.148 KA relative to UGCAUGU"},
      {"binder": "B5", "binding signal": "0.0888 KA relative to UGCAUGU"},
      {"binder": "B6", "binding signal": "0.119 KA relative to UGCAUGU"},
      {"binder": "B7", "binding signal": "0.0885 KA relative to UGCAUGU"},
      {"binder": "B8", "binding signal": "0.0792 KA relative to UGCAUGU"},
      {"binder": "B9", "binding signal": "0.103 KA relative to UGCAUGU"},
      {"binder": "B10", "binding signal": "0.1 KA relative to UGCAUGU"},
      {"binder": "B11", "binding signal": "0.0817 KA relative to UGCAUGU"},
      {"binder": "B12", "binding signal": "0.0722 KA relative to UGCAUGU"},
      {"binder": "B13", "binding signal": "0.0696 KA relative to UGCAUGU"},
      {"binder": "B14", "binding signal": "0.117 KA relative to UGCAUGU"},
      {"binder": "B15", "binding signal": "0.0958 KA relative to UGCAUGU"},
      {"binder": "B16", "binding signal": "0.0943 KA relative to UGCAUGU"},
      {"binder": "B17", "binding signal": "0.112 KA relative to UGCAUGU"},
      {"binder": "B18", "binding signal": "0.189 KA relative to UGCAUGU"},
      {"binder": "B19", "binding signal": "0.0673 KA relative to UGCAUGU"},
      {"binder": "B20", "binding signal": "0.108 KA relative to UGCAUGU"}
    ]}
  ]
}
